Source: the supplement of paper PMC12217912
The list shows a part of the results. The full chains were built here from the parent and the listed change. Values near 0.05 are background.

B1: TEV protease; numbered along this chain (parent)
chain: MGESLFKGPRDYNPISSSICHLTNESDGHTTSLYGIGFGPFIITNKHLFRRNNGTLVVQSLHGVFKVKDTTTLQQHLVDGRDMIIIRMPKDFPPFPQKLKFREPQREERICLVTTNFQTKSMSSMVSDTSCTFPSGDGIFWKHWIQTKDGQCGSPLVSTRDGFIVGIHSASNFTNTNNYFTSVPKNFMELLTNQEAQQWVSGWRLNADSVLWGGHKVFMVKPEEPFQPVKEATQL

Variants of: B1
Assay: raw area under fraction-flipped curve 0-4 h after induction (AUC4h, not background-subtracted), DNA-recorder readout of cleavage of the substrate (dimensionless); higher = more cleavage of the substrate by the protease variant
Conditions: temperature: 34 °C; time window: 0-4 h after rhamnose induction
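Note: Bxb1 expression induced with 0.2% (w/v) L-rhamnose at OD600 near 0.5, cultures sampled hourly, flipped fraction per protease–substrate barcode pair counted by paired-end Illumina sequencing.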

Row | Variant | area with substrate CNLYFQS | area with substrate DNLYFQS | area with substrate FNLYFQS | area with substrate GNLYFQS | area with substrate INLYFQS | area with substrate KNLYFQS | area with substrate MNLYFQS | area with substrate NNLYFQS | area with substrate PNLYFQS | area with substrate QNLYFQS | area with substrate SNLYFQS | area with substrate TNLYFQS | area with substrate WNLYFQS | area with substrate YNLYFQS | area with substrate LNLYFQS | area with substrate HNLYFQS | area with substrate RNLYFQS | area with substrate VNLYFQS
1 | MGESLFKGPRDYNPISSSICHLTNESDGHTTSLYGIGFGPFIITNKHLFRRNNGTLVVQSLHGVFKVKDTTTLQQHLVDGRDMIIIRMPKDFPPFPQKLKFREPQREERICLVTTNFQTKSMSSMVSDTSCTFPSGDGIFWKHWIQTKDGQCGSPLVSTRDGFIVGIHSASNFTNTNNYFTSVPKNFMELLTNQEAQRWVSGWRLNADSVLWGGHKVFMVKPEEPFQPVKEATQL [Q198R] | 0.102 | 0.0815 | 0.083 | 0.0547 | 0.0656 | 0.057 | 0.0669 | 0.0806 | 0.0706 | 0.0691 | 0.0565 | 0.0594 | 0.0541 | 0.0579 |  |  |  | 
2 | MGESLFKGPRDYNPISSSICHLTNESDGHTTSLYGIGFGPFIITNKHLFRRNNGTLVVQSLHGVFKVKDTTTLQQHLVDGRDMIIIRMPKDFPPFPQKLKFREPQREERICLVTTNFQTKSMSSMVSDTSCTFPSGDGIFWKHWIQTKDGQCGSPLVSTRDGFIVGIHSASNFTNTNNYFTSVPKNFMELLTNQEAQCWVSGWRLNADSVLWGGHKVFMVKPEEPFQPVKEATQL [Q198C] | 0.0593 | 0.069 | 0.0559 |  |  | 0.0707 |  |  | 0.064 | 0.0619 | 0.0569 |  | 0.0505 | 0.0579 | 0.0672 |  |  | 
3 | MGESLFKGPRDYNPISSSICHLTNESDGHTTSLYGIGFGPFIITNKHLFRRNNGTLVVQSLHGVFKVKDTTTLQQHLVDGRDMIIIRMPKDFPPFPQKLKFREPQREERICLVTTNFQTKSMSSMVSDTSCTFPSGDGIFWKHWIQTKDGQCGSPLVSTRDGFIVGIHSASNFTNTNNYFTSVPKNFMELLTNQEAQWWVSGWRLNADSVLWGGHKVFMVKPEEPFQPVKEATQL [Q198W] | 0.0401 | 0.0702 |  | 0.0581 | 0.029 |  | 0.0662 | 0.0579 | 0.0768 | 0.0667 |  | 0.06 | 0.0591 | 0.0651 | 0.0503 | 0.0708 | 0.0576 | 
4 | MGESLFKGPRDYNPISSSICHLTNESDGHTTSLYGIGFGPFIITNKHLFRRNNGTLVVQSLHGVFKVKDTTTLQQHLVDGRDMIIIRMPKDFPPFPQKLKFREPQREERICLVTTNFQTKSMSSMVSDTSCTFPSGDGIFWKHWIQTKDGQCGSPLVSTRDGFIVGIHSASNFTNTNNYFTSVPKNFMELLTNQEAQDWVSGWRLNADSVLWGGHKVFMVKPEEPFQPVKEATQL [Q198D] | 0.0656 | 0.0897 | 0.0597 | 0.064 |  | 0.0332 | 0.0861 | 0.0574 |  |  | 0.051 | 0.0603 | 0.0423 | 0.0643 | 0.0683 | 0.0532 |  | 
5 | MGESLFKGPRDYNPISSSICHLTNESDGHTTSLYGIGFGPFIITNKHLFRRNNGTLVVQSLHGVFKVKDTTTLQQHLVDGRDMIIIRMPKDFPPFPQKLKFREPQREERICLVTTNFQTKSMSSMVSDTSCTFPSGDGIFWKHWIQTKDGQCGSPLVSTRDGFIVGIHSASNFTNTNNYFTSVPKNFMELGTNQEAQQWVSGWRLNADSVLWGGHKVFMVKPEEPFQPVKEATQL [L191G] | 0.0633 | 0.0574 | 0.0477 | 0.0703 | 0.05 | 0.0541 | 0.0446 | 0.0461 | 0.06 | 0.0537 | 0.0536 |  | 0.0634 |  | 0.0511 | 0.0293 |  | 
6 | MGESLFKGPRDYNPISSSICHLTNESDGHTTSLYGIGFGPFIITNKHLFRRNNGTLVVQSLHGVFKVKDTTTLQQHLVDGRDMIIIRMPKDFPPFPQKLKFREPQREERICLVTTNFQTKSMSSMVSDTSCTFPSGDGIFWKHWIQTKDGQCGSPLVSTRDGFIVGIHSASNFTNTNNYFTSVPKNFMELDTNQEAQQWVSGWRLNADSVLWGGHKVFMVKPEEPFQPVKEATQL [L191D] | 0.0486 | 0.0603 | 0.0578 |  | 0.0552 | 0.0713 |  |  |  |  | 0.0649 | 0.0538 | 0.0484 | 0.0616 | 0.0467 | 0.0612 |  | 
7 | MGESLFKGPRDYNPISSSICHLTNESDGHTTSLYGIGFGPFIITNKHLFRRNNGTLVVQSLHGVFKVKDTTTLQQHLVDGRDMIIIRMPKDFPPFPQKLKFREPQREERICLVTTNFQTKSMSSMVSDTSCTFPSGDGIFWKHWIQTKDGQCGSPLVSTRDGFIVGIHSASNFTNTNNYFTSVPKNFMELMTNQEAQQWVSGWRLNADSVLWGGHKVFMVKPEEPFQPVKEATQL [L191M] | 0.0801 | 0.0741 | 0.0509 | 0.065 | 0.0777 | 0.0657 | 0.0644 | 0.0554 | 0.0612 |  | 0.0558 | 0.0485 | 0.0522 | 0.0584 | 0.0534 | 0.0601 |  | 0.0784
8 | MGESLFKGPRDYNPISSSICHLTNESDGHTTSLYGIGFGPFIITNKHLFRRNNGTLVVQSLHGVFKVKDTTTLQQHLVDGRDMIIIRMPKDFPPFPQKLKFREPQREERICLVTTNFQTKSMSSMVSDTSCTFPSGDGIFWKHWIQTKDGQCGSPLVSTRDGFIVGIHSASNFTNTNNYFTSVPKNFMELLTNQMAQQWVSGWRLNADSVLWGGHKVFMVKPEEPFQPVKEATQL [E195M] | 0.0025 | 0.0671 |  | 0.0729 | 0.0542 |  |  | 0.076 |  |  |  | 0.0614 | 0.0627 |  | 0.0594 | 0.0618 |  | 
9 | MGESLFKGPRDYNPISSSICHLTNESDGHTTSLYGIGFGPFIITNKHLFRRNNGTLVVQSLHGVFKVKDTTTLQQHLVDGRDMIIIRMPKDFPPFPQKLKFREPQREERICLVTTNFQTKSMSSMVSDTSCTFPSGDGIFWKHWIQTKDGQCGSPLVSTRDGFIVGIHSASNFTNTNNYFTSVPKNFMELLTTQEAQQWVSGWRLNADSVLWGGHKVFMVKPEEPFQPVKEATQL [N193T] | 0.0646 | 0.0573 |  |  | 0.0616 | 0.0635 |  | 0.0537 | 0.0622 |  |  | 0.0736 | 0.0587 |  |  | 0.0701 | 0.0617 | 0.0709
10 | MGESLFKGPRDYNPISSSICHLTNESDGHTTSLYGIGFGPFIITNKHLFRRNNGTLVVQSLHGVFKVKDTTTLQQHLVDGRDMIIIRMPKDFPPFPQKLKFREPQREERICLVTTNFQTKSMSSMVSDTSCTFPSGDGIFWKHWIQTKDGQCGSPLVSTRDGFIVGIHSASNFTNTNNYFTSVPKNFMELLTGQEAQQWVSGWRLNADSVLWGGHKVFMVKPEEPFQPVKEATQL [N193G] | 0.0606 | 0.0705 |  |  |  |  |  |  | 0.083 |  | 0.0725 |  | 0.0667 | 0.0504 | 0.0543 | 0.073 |  | 
